Results taken from the supplement of paper PMC12217912.
Some of the results follow. Sequences were assembled here from the parent chain. Values near 0.05 are background.

B1: TEV protease; numbered along this chain (parent)
chain: MGESLFKGPRDYNPISSSICHLTNESDGHTTSLYGIGFGPFIITNKHLFRRNNGTLVVQSLHGVFKVKDTTTLQQHLVDGRDMIIIRMPKDFPPFPQKLKFREPQREERICLVTTNFQTKSMSSMVSDTSCTFPSGDGIFWKHWIQTKDGQCGSPLVSTRDGFIVGIHSASNFTNTNNYFTSVPKNFMELLTNQEAQQWVSGWRLNADSVLWGGHKVFMVKPEEPFQPVKEATQL

Variants of: B1
Assay: raw area under fraction-flipped curve 0-4 h after induction (AUC4h, not background-subtracted), DNA-recorder readout of cleavage of the substrate (dimensionless); higher = more cleavage of the substrate by the protease variant
Conditions: temperature: 34 °C; time window: 0-4 h after rhamnose induction
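Also: Bxb1 expression induced with 0.2% (w/v) L-rhamnose at OD600 near 0.5, cultures sampled hourly, flipped fraction per protease–substrate barcode pair counted by paired-end Illumina sequencing.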

Variant | area with substrate ENDYFQS | area with substrate ENIYFQS | area with substrate ENKYFQS | area with substrate ENPYFQS | area with substrate ENQYFQS | area with substrate ENSYFQS | area with substrate ENYYFQS | area with substrate ENEYFQS | area with substrate ENGYFQS | area with substrate ENTYFQS
D91R | 0.0446 | 0.139 | 0.0658 | 0.0653 | 0.066 | 0.0599 | 0.0508 | – | – | –
F101R | 0.0502 | – | – | – | 0.0485 | 0.0596 | 0.0663 | 0.0472 | 0.0439 | 0.0587
E103R | 0.0565 | 0.0839 | 0.0603 | 0.0557 | 0.0675 | 0.0623 | – | 0.0394 | 0.0728 | 0.0642
Q105P | 0.0459 | – | – | – | 0.0443 | 0.0451 | – | 0.0502 | 0.0419 | 0.0293
E108F | 0.0555 | – | – | – | 0.0507 | 0.0559 | 0.0594 | 0.0599 | – | 0.0567
C111G | 0.0328 | – | 0.0717 | 0.0576 | 0.0522 | 0.0528 | – | 0.0719 | 0.0628 | –
M122R | 0.0596 | 0.142 | – | – | – | – | 0.0657 | – | 0.0517 | 0.0598
S124L | 0.0534 | 0.105 | – | 0.0395 | 0.0601 | – | 0.0612 | 0.0631 | 0.0644 | –
K142A | 0.0282 | – | – | 0.0684 | 0.0556 | – | – | – | – | –
Q146F | 0.043 | 0.116 | – | – | 0.0366 | 0.0646 | – | – | – | –
S158F | 0.0631 | – | 0.0637 | – | 0.0502 | 0.0769 | – | 0.0518 | – | –
T174W | 0.0507 | – | 0.0647 | 0.0533 | 0.0588 | 0.0749 | – | 0.0713 | 0.0655 | 0.0522
F180K | 0.0842 | 0.0599 | – | – | 0.0489 | – | – | 0.0394 | 0.0658 | 0.0574
F180M | 0.0613 | – | 0.043 | – | 0.0566 | – | 0.034 | – | – | 0.0383
Q197A | 0.0805 | – | – | – | 0.0589 | 0.0637 | – | 0.0531 | – | –
L205I | 0.0598 | – | – | – | – | 0.068 | 0.0617 | 0.0696 | 0.0566 | –
N206Y | 0.0612 | 0.0754 | 0.053 | – | 0.0824 | – | – | 0.0633 | 0.0633 | 0.0575
M219N | 0.049 | – | 0.0671 | 0.0838 | 0.051 | 0.0675 | – | 0.0653 | 0.041 | 0.0448
P222K | 0.0468 | – | – | – | 0.0646 | 0.0543 | 0.0122 | 0.057 | – | 0.0428
L5V | – | – | – | 0.0697 | 0.0648 | 0.0629 | – | 0.0542 | – | 0.0569

Variant | area with substrate ENDYFQS | area with substrate ENIYFQS | area with substrate ENKYFQS | area with substrate ENPYFQS | area with substrate ENQYFQS | area with substrate ENSYFQS | area with substrate ENYYFQS | area with substrate ENEYFQS | area with substrate ENGYFQS | area with substrate ENTYFQS
F6P | – | – | – | – | 0.0502 | – | – | 0.0464 | – | –
G8Y | – | – | 0.0546 | – | – | – | – | 0.0774 | – | –
T71K | – | 0.114 | – | – | – | 0.0397 | 0.0667 | 0.0501 | 0.071 | –
T71R | – | – | 0.0623 | 0.0615 | 0.0742 | 0.0645 | 0.0517 | 0.0579 | 0.0317 | 0.0649
L73K | – | – | – | – | 0.0604 | 0.0418 | – | 0.0312 | – | 0.0473
P94F | – | – | 0.0674 | – | 0.0568 | 0.0568 | – | 0.0811 | 0.0668 | 0.0628
R106M | – | – | – | – | 0.0592 | 0.0614 | 0.0625 | 0.0524 | 0.0706 | 0.17
S154T | – | 0.112 | – | – | 0.0628 | 0.0652 | – | 0.0465 | 0.0548 | 0.0534
V157Q | – | 0.1 | 0.0713 | 0.0512 | 0.0493 | 0.0478 | – | 0.0662 | 0.0598 | 0.0476
T159N | – | – | – | – | 0.0553 | 0.0919 | – | 0.0381 | 0.0553 | –
K185H | – | – | – | 0.0727 | 0.0578 | 0.0683 | – | 0.0609 | 0.0722 | 0.0452
Q197T | – | – | – | – | 0.0583 | 0.0369 | – | 0.0532 | 0.0621 | –
E223V | – | – | – | – | 0.0587 | 0.0525 | – | 0.0642 | – | 0.0553
F226T | – | – | 0.0355 | 0.0512 | – | – | – | 0.0541 | – | –
Y34A | – | – | 0.0506 | – | 0.0647 | 0.0656 | – | – | 0.0661 | –
V67Y | – | – | – | 0.053 | 0.0576 | 0.0611 | – | – | 0.0631 | –
M125I | – | – | – | – | 0.0532 | 0.0518 | – | – | – | –
S171A | – | – | – | – | – | 0.0601 | – | – | – | –
V58H | – | – | – | – | 0.0319 | 0.0455 | 0.0412 | – | – | –
G2C | – | – | – | – | – | 0.05 | – | – | – | 0.0603

Same assay, conditions: temperature: 34 °C; time window: 0-4 h after rhamnose induction

Variant | area with substrate ENVYFQS | area with substrate ENWYFQS | area with substrate ENFYFQS | area with substrate ENHYFQS | area with substrate ENRYFQS | area with substrate ENMYFQS | area with substrate ENNYFQS
F101R | 0.0731 | 0.0729 | – | – | – | – | –
E103R | – | – | 0.0538 | 0.0681 | 0.0636 | – | –
Q105P | 0.0458 | 0.0541 | – | 0.0606 | – | 0.0525 | 0.0639
E108F | 0.0755 | – | – | 0.0589 | 0.0596 | – | 0.0457
C111G | 0.0839 | 0.0584 | 0.0543 | – | – | – | 0.061
M122R | 0.0952 | 0.0448 | 0.0527 | – | 0.052 | – | –
S124L | 0.079 | 0.0648 | – | – | 0.0531 | – | –
K142A | 0.0034 | 0.0097 | 0.0492 | 0.0672 | 0.0616 | – | 0.0388
Q146F | 0.0852 | – | – | – | – | 0.0972 | 0.0633
S158F | – | 0.041 | – | – | 0.0558 | – | –
T174W | – | – | 0.0563 | 0.0647 | – | 0.0678 | 0.0593
F180K | 0.051 | – | – | – | – | 0.0541 | 0.0585
F180M | 0.0789 | – | – | – | 0.005 | – | 0.067
Q197A | 0.065 | – | 0.0355 | 0.0597 | – | – | –
N206Y | 0.0665 | – | 0.0562 | – | – | – | 0.0527
P222K | – | – | – | – | 0.05 | 0.0683 | –
L5V | – | – | 0.0682 | – | 0.0607 | – | –
F6P | 0.0785 | 0.0475 | – | – | – | – | –

Variant | area with substrate ENVYFQS | area with substrate ENWYFQS | area with substrate ENFYFQS | area with substrate ENHYFQS | area with substrate ENRYFQS | area with substrate ENMYFQS | area with substrate ENNYFQS
T71K | 0.0463 | – | – | 0.0596 | – | – | 0.0873
T71R | – | – | – | 0.0512 | – | – | 0.0572
L73K | – | 0.0423 | – | – | – | 0.0492 | –
P94F | 0.0707 | – | 0.0387 | 0.062 | – | – | 0.0611
R106M | 0.0371 | – | 0.0618 | 0.0538 | – | 0.177 | 0.0645
S154T | 0.0824 | 0.0053 | 0.0518 | – | – | 0.0853 | –
V157Q | 0.0741 | – | 0.0629 | 0.073 | – | 0.0935 | –
T159N | – | – | 0.0588 | – | – | 0.0859 | 0.0569
K185H | – | 0.0626 | 0.0627 | – | – | – | –
Q197T | – | – | 0.0551 | – | – | 0.0908 | 0.0536
E223V | 0.0955 | – | – | – | 0.0578 | – | 0.0436
F226T | 0.0828 | 0.0609 | – | 0.0642 | – | – | –
Y34A | 0.0454 | 0.0469 | 0.0539 | 0.053 | – | 0.0563 | 0.0623
V67Y | – | 0.0486 | 0.0739 | 0.053 | 0.0532 | – | –
L205T | – | – | 0.0377 | – | – | – | –
M125I | – | – | – | 0.055 | 0.0743 | 0.0401 | 0.0552
S171A | – | – | – | 0.0624 | – | – | –
